The list shows a part of the results. Where only a bound is given, the exact number is not on record here.

B1: PhoQ; a variant is named by its letters at X, in order, P23837 (parent)
chain: MKKLLRLFFPLSLRVRFLLATAAVVLVLSLAYGMVALIGYSVSFDKTTFRLLRGESNLFYTLAKWENNKLHVELPENIDKQSPTMTLIYDENGQLLWAQRDVPWLMKMIQPDWLKSNGFHEIEADVNDTSLLLSGDHSIQQQLQEVREDDDDAEMTHSVAVNVYPATSRMPKLTIVVVDTIPVELKSSYMVWSWFIYVLSANLLLVIPLLWVAAWWSLRPIEALAKEVRELEEHNRELLNPATTRELTSLVRNLNRLLKSERERYDKYRTTLTDLTHSLKTPLXXLQXXLRSLRSEKMSVSDAEPVMLEQISRISQQIGYYLHRASMRGGTLLSRELHPVAPLLDNLTSALNKVYQRKGVNISLDISPEISFVGEQNDFVEVMGNVLDNACKYCLEFVEISARQTDEHLYIVVEDDGPGIPLSKREVIFDRGQRVDTLRPGQGVGLAVAREITEQYEGKIVAGESMLGGARMEVIFGRQHSAPKDE

Variants of B1 are the subject of this assay. As to the kind of experiment: enrichment ratio after two sorts for PhoP signalling (ratio (wild type AVST 3.29)); higher = more functional. The conditions noted are these: with PhoP (E. coli).
VNQS: the enrichment ratio is not above 0.25. As for NQFQ, the enrichment ratio is not above 0.25.

With HTLS, the enrichment ratio was not above 0.25. Turning to TEFG, the enrichment ratio was found to be 19. The figure for HSAD is not above 0.25; for RWPQ it is not above 0.25; for YKPW it is 1.28. Consider APSD, for which the enrichment ratio was not above 0.25. Next, GFGA: not above 0.25; YWMD: not above 0.25; NELM: not above 0.25. Next, YYTE: not above 0.25; HWFE: not above 0.25; RRWF: not above 0.25. Next, IWYF: not above 0.25; YCGH: not above 0.25. Take VPMQ: the enrichment ratio is not above 0.25.

On to ELTN, for which the enrichment ratio was not above 0.25.

Turning to IFNQ, the enrichment ratio was not above 0.25. On to WECS, for which the enrichment ratio was not above 0.25. The figure for SKLK is not above 0.25; for LGQW it is not above 0.25; for SSRT it is not above 0.25. In the case of VMHM, the enrichment ratio is not above 0.25. Next, ALIW: not above 0.25. The figure for FYMW is not above 0.25; for EMVT it is not above 0.25; for FCCC it is not above 0.25. The figure for DTQC is not above 0.25; for HPYW it is not above 0.25. On to QDPF, for which the enrichment ratio was not above 0.25. Consider NIYV, for which the enrichment ratio is not above 0.25.

In the case of MYFA, the enrichment ratio was not above 0.25. As for MTYT, the enrichment ratio is not above 0.25. The figure for SEAY is 5.88; for MELE it is not above 0.25; for ECNW it is not above 0.25. Consider DGWD, for which the enrichment ratio was not above 0.25. As to KMNF, the enrichment ratio was not above 0.25.

Take REIH: the enrichment ratio turned out to be 1.52. The figure for CMVF is not above 0.25; for WRPD it is not above 0.25; for PWHP it is not above 0.25. Consider LADL, for which the enrichment ratio was not above 0.25. As to NDFN, the enrichment ratio is not above 0.25. Next, LINQ: not above 0.25. Turning to IYTM, the enrichment ratio was not above 0.25.

RLNF: the enrichment ratio was not above 0.25. Turning to KRPN, the enrichment ratio is not above 0.25. Next, TAIK: not above 0.25; HSTA: not above 0.25.

On to FIFT, for which the enrichment ratio was not above 0.25. The figure for ETDI is not above 0.25; for FNSL it is not above 0.25. The figure for MTLM is 13.8. Next, RPAE: not above 0.25; PWKN: not above 0.25.

Regarding EEMP, the enrichment ratio is not above 0.25.

EKIW: the enrichment ratio was not above 0.25. Take MDQN: the enrichment ratio was not above 0.25. For GELC, the enrichment ratio came out at 8.26. Next, WMFL: not above 0.25; YHLG: not above 0.25; MFPA: not above 0.25. Next, LRKE: not above 0.25; FVAA: not above 0.25; LWPN: not above 0.25. RHRT: the enrichment ratio is not above 0.25.

Take TGVQ: the enrichment ratio amounted to 7.73.

With DKAP, the enrichment ratio was not above 0.25. The figure for WGHI is not above 0.25.

Turning to MLCF, the enrichment ratio came out at 1.33. The figure for HEDF is not above 0.25. The figure for YYIP is not above 0.25; for RGIR it is not above 0.25; for NEDE it is not above 0.25. Next, VRPP: not above 0.25; FAPF: not above 0.25. In the case of FYQK, the enrichment ratio is not above 0.25. For PYKY, the enrichment ratio was not above 0.25. The figure for AFIT is not above 0.25; for FVTT it is not above 0.25.

Take SHYK: the enrichment ratio is not above 0.25. As to NPDE, the enrichment ratio is not above 0.25.

In the case of QAVH, the enrichment ratio was not above 0.25.

Regarding TEGM, the enrichment ratio turned out to be 4.56. The figure for PYYH is not above 0.25; for PVFW it is not above 0.25; for HDMH it is not above 0.25. Next, DPQR: not above 0.25; RFMC: 1.4; RRTA: not above 0.25. Next, TGFT: 3.02; TFLC: 2.75; YLPP: not above 0.25. RLIG: the enrichment ratio was not above 0.25. The figure for LQWP is not above 0.25; for LHIS it is not above 0.25.

RTDT: the enrichment ratio was not above 0.25. The figure for YQEF is not above 0.25; for FFRC it is not above 0.25. Regarding MDCW, the enrichment ratio was not above 0.25. The figure for LFQI is not above 0.25. Next, SNNV: 5.17; AMQN: not above 0.25; IVYD: not above 0.25.

For TPLF, the enrichment ratio was not above 0.25.

Regarding YTMI, the enrichment ratio worked out at 6.21. The figure for WPNM is not above 0.25. Next, KGYT: not above 0.25; NLMP: not above 0.25. Next, QPSI: not above 0.25; WGCS: not above 0.25. Regarding WEYN, the enrichment ratio is not above 0.25. Regarding NEQA, the enrichment ratio was not above 0.25. Take PLIF: the enrichment ratio is not above 0.25. ECTW: the enrichment ratio is not above 0.25.

With MTKI, the enrichment ratio is not above 0.25. Next, SRQQ: not above 0.25. The figure for HNLM is not above 0.25; for SNER it is not above 0.25. The figure for WLRA is not above 0.25; for MHMG it is not above 0.25; for YHKI it is not above 0.25. On to MVCP, for which the enrichment ratio was not above 0.25. The figure for PSLV is not above 0.25; for WDHC it is not above 0.25.

For DHKH, the enrichment ratio was not above 0.25. The figure for EDVR is not above 0.25. The figure for EEMH is not above 0.25; for TCMW it is not above 0.25. The figure for DNRK is not above 0.25; for KHMQ it is not above 0.25. As to WNDN, the enrichment ratio was not above 0.25. Next, DETV: not above 0.25; KRTP: not above 0.25; TNPS: not above 0.25. Next, AKVM: not above 0.25; EECR: not above 0.25; RWTH: not above 0.25.

Regarding QFGK, the enrichment ratio was not above 0.25.

As for PVHL, the enrichment ratio is not above 0.25. As for DVKF, the enrichment ratio was not above 0.25. Take TKIY: the enrichment ratio came to 8.8.

Take HGFT: the enrichment ratio is not above 0.25. As for SAVI, the enrichment ratio was determined as 3.04. The figure for QSIV is not above 0.25. The figure for SHDY is not above 0.25; for FATQ it is not above 0.25. On to NDHS, for which the enrichment ratio is not above 0.25.

In the case of EQHD, the enrichment ratio was not above 0.25. Next, RDDL: not above 0.25; ITQK: not above 0.25.

Take MRDY: the enrichment ratio is not above 0.25.

Take QNYG: the enrichment ratio was not above 0.25. Next, STTT: 8.65; DKMC: not above 0.25; SPKV: not above 0.25. The figure for NDTT is not above 0.25. Next, SMGQ: 11.7. Take DFNA: the enrichment ratio was not above 0.25. Regarding VWDR, the enrichment ratio was not above 0.25. Next, EFFT: not above 0.25; RYYH: not above 0.25; IWKS: not above 0.25. With LHFW, the enrichment ratio was not above 0.25. Next, RQCD: not above 0.25; TINI: 7.09; WGKW: not above 0.25.

Take MMEH: the enrichment ratio is not above 0.25.

LPRY: the enrichment ratio was not above 0.25.

As to WQIK, the enrichment ratio is not above 0.25. Next, VEYN: not above 0.25; VQCY: not above 0.25. The figure for IIWY is not above 0.25; for SEYT it is 6.93; for WLWR it is not above 0.25. Take DVVY: the enrichment ratio was not above 0.25. The figure for YGVG is not above 0.25; for STRH it is not above 0.25. Next, LKPV: not above 0.25. As for LRLD, the enrichment ratio is not above 0.25.

With MCYR, the enrichment ratio is not above 0.25. Next, AITT: 3.34; GRCP: not above 0.25.

Regarding RGVE, the enrichment ratio was not above 0.25. Consider PTPV, for which the enrichment ratio is not above 0.25. On to SLYS, for which the enrichment ratio was not above 0.25. The figure for TRCM is 12.4; for PPPN it is not above 0.25.

Turning to AEKF, the enrichment ratio was not above 0.25. The figure for HCHP is not above 0.25; for LLLC it is not above 0.25.

Take QLVH: the enrichment ratio is not above 0.25. The figure for DKHN is not above 0.25.

For the origin of these results see a collection of fitness landscapes (doi:10.1126/science.1257360).
